B1: Caulobacter ParB omega fusion; a variant is named by its letters at X, in order, B8GW30 (parent)
chain: MESVVVGEPGMSEGRRGLGRGLSALLGEVDAAPAQAPGEQLGGSREAPIEILQRNPDQPRRTFREEDLEDLSNSIREKGVLQPILVRPSPDTAGEYQIVAGERAWRAAQRAGLKTVPIMVRELDDLAVLEIGIIENVQRADLNVLEEALSYKVLMEKFERTQENIAQTIGKSXSHVANXMRLLXLPDEVQSYLVSGELTAXHARAIAAAADPVALAKQIIEGGLSVRETEALARKAPNLSAGKSKGGRPPRVKDTDTQALESDLSSVLGLDVSIDHRGSTGTLTITYATLEQLDDLCNRLTRGI

The record followed here is a collection of fitness landscapes (doi:10.1016/j.celrep.2020.107928).

Whole data set: some 81,000 sequences, median “one-hybrid fitness for binding parS DNA” near -0.17, cut for the highest 2% near 0.51. Some of the results follow. Where only a bound is given, the exact number is not on record here.

In the assay the parent is B1. As to the kind of experiment: one-hybrid fitness for binding parS DNA (scaled: cognate 1, non-cognate 0); higher = stronger binding. The settings on record: with parS DNA site. Put shortly:
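Fitness here means the log change in variant-to-wild-type read ratio between plasmids sequenced before and after selection. That scale was set so cognate equals 1 and non-cognate equals 0. The selection was a bacterial one-hybrid screen of Caulobacter ParB libraries, four specificity codons randomised, in E. coli USO carrying a HIS3 reporter with the site 19 bp from the promoter, grown 48 hours at 37°C on M9-minus-histidine with 0.1 mM IPTG and 5 mM 3-AT.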
Regarding KATY, the “one-hybrid fitness for binding parS DNA” value was ≤ 0.2.

Take RKVY: the “one-hybrid fitness for binding parS DNA” value amounted to 0.412.

Turning to DALW, the “one-hybrid fitness for binding parS DNA” value is ≤ 0.2.

For the variant MLCR, the “one-hybrid fitness for binding parS DNA” value was ≤ 0.2.

As for DYLS, the “one-hybrid fitness for binding parS DNA” value is ≤ 0.2.

On to PMPK, for which the “one-hybrid fitness for binding parS DNA” value was ≤ 0.2.

Regarding ENQC, the “one-hybrid fitness for binding parS DNA” value is ≤ 0.2.

Take THHD: the “one-hybrid fitness for binding parS DNA” value was ≤ 0.2.

Consider DRFS, for which the “one-hybrid fitness for binding parS DNA” value is ≤ 0.2.

With QRTC, the “one-hybrid fitness for binding parS DNA” value is ≤ 0.2.

As for FPDR, the “one-hybrid fitness for binding parS DNA” value was ≤ 0.2.

As for APGG, the “one-hybrid fitness for binding parS DNA” value was ≤ 0.2.

Take PTFP: the “one-hybrid fitness for binding parS DNA” value was ≤ 0.2.

With SNHV, the “one-hybrid fitness for binding parS DNA” value is ≤ 0.2.

IYLL: the “one-hybrid fitness for binding parS DNA” value is ≤ 0.2.

Consider KKKY, for which the “one-hybrid fitness for binding parS DNA” value was ≤ 0.2.

Take IRKP: the “one-hybrid fitness for binding parS DNA” value was ≤ 0.2.

For the variant VQHM, the “one-hybrid fitness for binding parS DNA” value is ≤ 0.2.

Take SRKM: the “one-hybrid fitness for binding parS DNA” value is ≤ 0.2.

Turning to KIMS, the “one-hybrid fitness for binding parS DNA” value was ≤ 0.2.

As to RSIK, the “one-hybrid fitness for binding parS DNA” value is ≤ 0.2.

Turning to SVAR, the “one-hybrid fitness for binding parS DNA” value is ≤ 0.2.

Turning to NGEK, the “one-hybrid fitness for binding parS DNA” value was ≤ 0.2.

LCNT: the “one-hybrid fitness for binding parS DNA” value is ≤ 0.2.

Consider PPDK, for which the “one-hybrid fitness for binding parS DNA” value was ≤ 0.2.

As to AYEG, the “one-hybrid fitness for binding parS DNA” value was ≤ 0.2.

ILKF: the “one-hybrid fitness for binding parS DNA” value was ≤ 0.2.

In the case of RFWN, the “one-hybrid fitness for binding parS DNA” value is ≤ 0.2.

Take PHHF: the “one-hybrid fitness for binding parS DNA” value is ≤ 0.2.

On to QMEA, for which the “one-hybrid fitness for binding parS DNA” value is ≤ 0.2.

For SRKP, the “one-hybrid fitness for binding parS DNA” value was ≤ 0.2.

As to AYFS, the “one-hybrid fitness for binding parS DNA” value is ≤ 0.2.

As to KKTP, the “one-hybrid fitness for binding parS DNA” value is ≤ 0.2.

In the case of YWTD, the “one-hybrid fitness for binding parS DNA” value was ≤ 0.2.

For TWHG, the “one-hybrid fitness for binding parS DNA” value was ≤ 0.2.

Consider ERQE, for which the “one-hybrid fitness for binding parS DNA” value is ≤ 0.2.

As for PLNR, the “one-hybrid fitness for binding parS DNA” value is ≤ 0.2.

Consider PLTQ, for which the “one-hybrid fitness for binding parS DNA” value was ≤ 0.2.

Take RTAL: the “one-hybrid fitness for binding parS DNA” value is ≤ 0.2.

As to PNHG, the “one-hybrid fitness for binding parS DNA” value is ≤ 0.2.

As for PTDE, the “one-hybrid fitness for binding parS DNA” value was ≤ 0.2.

Consider GNVT, for which the “one-hybrid fitness for binding parS DNA” value is ≤ 0.2.

On to QRHP, for which the “one-hybrid fitness for binding parS DNA” value was ≤ 0.2.

With ANVP, the “one-hybrid fitness for binding parS DNA” value was ≤ 0.2.

Take LYFK: the “one-hybrid fitness for binding parS DNA” value is ≤ 0.2.

For AYYC, the “one-hybrid fitness for binding parS DNA” value was ≤ 0.2.

With FDSG, the “one-hybrid fitness for binding parS DNA” value was ≤ 0.2.

With PFVC, the “one-hybrid fitness for binding parS DNA” value was ≤ 0.2.

QALE: the “one-hybrid fitness for binding parS DNA” value was ≤ 0.2.

Take DFMG: the “one-hybrid fitness for binding parS DNA” value is ≤ 0.2.

In the case of LVTT, the “one-hybrid fitness for binding parS DNA” value is ≤ 0.2.

Regarding MPEN, the “one-hybrid fitness for binding parS DNA” value was ≤ 0.2.

Turning to PHPL, the “one-hybrid fitness for binding parS DNA” value is ≤ 0.2.

With GWRS, the “one-hybrid fitness for binding parS DNA” value was ≤ 0.2.

For the variant PGWC, the “one-hybrid fitness for binding parS DNA” value was ≤ 0.2.

For RHLV, the “one-hybrid fitness for binding parS DNA” value was ≤ 0.2.

Consider MVTN, for which the “one-hybrid fitness for binding parS DNA” value was ≤ 0.2.

For the variant TMKL, the “one-hybrid fitness for binding parS DNA” value is ≤ 0.2.

As for DGKL, the “one-hybrid fitness for binding parS DNA” value was ≤ 0.2.

Turning to CTRT, the “one-hybrid fitness for binding parS DNA” value is ≤ 0.2.

Take SPNA: the “one-hybrid fitness for binding parS DNA” value was ≤ 0.2.

On to GRLD, for which the “one-hybrid fitness for binding parS DNA” value was ≤ 0.2.

As to NTVQ, the “one-hybrid fitness for binding parS DNA” value was ≤ 0.2.

Regarding VYQC, the “one-hybrid fitness for binding parS DNA” value is ≤ 0.2.

Consider NVVS, for which the “one-hybrid fitness for binding parS DNA” value was ≤ 0.2.

For the variant NELT, the “one-hybrid fitness for binding parS DNA” value is ≤ 0.2.

On to SWKY, for which the “one-hybrid fitness for binding parS DNA” value was ≤ 0.2.

Consider ADRA, for which the “one-hybrid fitness for binding parS DNA” value is ≤ 0.2.

Consider FESG, for which the “one-hybrid fitness for binding parS DNA” value is ≤ 0.2.

For MVRF, the “one-hybrid fitness for binding parS DNA” value is ≤ 0.2.

Take SAGS: the “one-hybrid fitness for binding parS DNA” value was ≤ 0.2.

In the case of HHQR, the “one-hybrid fitness for binding parS DNA” value is ≤ 0.2.

Take GYRS: the “one-hybrid fitness for binding parS DNA” value is ≤ 0.2.

Turning to QTGG, the “one-hybrid fitness for binding parS DNA” value is ≤ 0.2.

On to MSLN, for which the “one-hybrid fitness for binding parS DNA” value was ≤ 0.2.

For the variant REEA, the “one-hybrid fitness for binding parS DNA” value is ≤ 0.2.

As for RASK, the “one-hybrid fitness for binding parS DNA” value is ≤ 0.2.

For LNKW, the “one-hybrid fitness for binding parS DNA” value was ≤ 0.2.

In the case of GSKM, the “one-hybrid fitness for binding parS DNA” value was ≤ 0.2.

In the case of PFGN, the “one-hybrid fitness for binding parS DNA” value is ≤ 0.2.

Turning to TYSE, the “one-hybrid fitness for binding parS DNA” value was ≤ 0.2.

Turning to CPAR, the “one-hybrid fitness for binding parS DNA” value is ≤ 0.2.

For ALTA, the “one-hybrid fitness for binding parS DNA” value is ≤ 0.2.

For the variant HKNV, the “one-hybrid fitness for binding parS DNA” value is ≤ 0.2.

Take VMTK: the “one-hybrid fitness for binding parS DNA” value was ≤ 0.2.

With PEDL, the “one-hybrid fitness for binding parS DNA” value is ≤ 0.2.

For the variant DSVI, the “one-hybrid fitness for binding parS DNA” value was ≤ 0.2.

As for NWPT, the “one-hybrid fitness for binding parS DNA” value is ≤ 0.2.

Turning to CLLC, the “one-hybrid fitness for binding parS DNA” value was ≤ 0.2.

Turning to NDMS, the “one-hybrid fitness for binding parS DNA” value was ≤ 0.2.

Turning to ENAG, the “one-hybrid fitness for binding parS DNA” value was ≤ 0.2.

On to RDII, for which the “one-hybrid fitness for binding parS DNA” value is ≤ 0.2.

TTMS: the “one-hybrid fitness for binding parS DNA” value was ≤ 0.2.

Consider THMV, for which the “one-hybrid fitness for binding parS DNA” value is ≤ 0.2.

For LPGC, the “one-hybrid fitness for binding parS DNA” value was ≤ 0.2.

With QVNG, the “one-hybrid fitness for binding parS DNA” value was ≤ 0.2.

As for RGHQ, the “one-hybrid fitness for binding parS DNA” value was ≤ 0.2.

Turning to KQHR, the “one-hybrid fitness for binding parS DNA” value is ≤ 0.2.

Turning to VQFR, the “one-hybrid fitness for binding parS DNA” value was ≤ 0.2.

Take KHLP: the “one-hybrid fitness for binding parS DNA” value is ≤ 0.2.

As to HRIV, the “one-hybrid fitness for binding parS DNA” value is ≤ 0.2.

In the case of VSIT, the “one-hybrid fitness for binding parS DNA” value is ≤ 0.2.

As to WIDS, the “one-hybrid fitness for binding parS DNA” value was ≤ 0.2.

IVPR: the “one-hybrid fitness for binding parS DNA” value was ≤ 0.2.

For PNTN, the “one-hybrid fitness for binding parS DNA” value was ≤ 0.2.

Turning to LLYM, the “one-hybrid fitness for binding parS DNA” value is ≤ 0.2.

For PWVL, the “one-hybrid fitness for binding parS DNA” value is ≤ 0.2.

As to HGES, the “one-hybrid fitness for binding parS DNA” value was ≤ 0.2.

With PPRF, the “one-hybrid fitness for binding parS DNA” value is ≤ 0.2.

Consider MWLI, for which the “one-hybrid fitness for binding parS DNA” value was ≤ 0.2.

With QKQN, the “one-hybrid fitness for binding parS DNA” value is ≤ 0.2.

Take SMPT: the “one-hybrid fitness for binding parS DNA” value is ≤ 0.2.

Consider YRDS, for which the “one-hybrid fitness for binding parS DNA” value is ≤ 0.2.

On to HLIK, for which the “one-hybrid fitness for binding parS DNA” value is ≤ 0.2.

With RLCQ, the “one-hybrid fitness for binding parS DNA” value was found to be 0.203.

Turning to WRSL, the “one-hybrid fitness for binding parS DNA” value was ≤ 0.2.

On to WDPD, for which the “one-hybrid fitness for binding parS DNA” value is ≤ 0.2.

As for YWQG, the “one-hybrid fitness for binding parS DNA” value is ≤ 0.2.

As to GMTL, the “one-hybrid fitness for binding parS DNA” value is ≤ 0.2.

TMER: the “one-hybrid fitness for binding parS DNA” value was ≤ 0.2.

As to SRID, the “one-hybrid fitness for binding parS DNA” value is ≤ 0.2.

PYTT: the “one-hybrid fitness for binding parS DNA” value is ≤ 0.2.

For the variant LRRM, the “one-hybrid fitness for binding parS DNA” value was ≤ 0.2.

For the variant KFHF, the “one-hybrid fitness for binding parS DNA” value was ≤ 0.2.

With MCRR, the “one-hybrid fitness for binding parS DNA” value was ≤ 0.2.

Consider WVGC, for which the “one-hybrid fitness for binding parS DNA” value was ≤ 0.2.

SPTK: the “one-hybrid fitness for binding parS DNA” value was ≤ 0.2.

VLHS: the “one-hybrid fitness for binding parS DNA” value was ≤ 0.2.

Regarding TCNI, the “one-hybrid fitness for binding parS DNA” value was ≤ 0.2.

As to PNVM, the “one-hybrid fitness for binding parS DNA” value is ≤ 0.2.

Turning to VLFC, the “one-hybrid fitness for binding parS DNA” value is ≤ 0.2.

RTAA: the “one-hybrid fitness for binding parS DNA” value amounted to 0.579.

Regarding NNTI, the “one-hybrid fitness for binding parS DNA” value is ≤ 0.2.

In the case of HRKI, the “one-hybrid fitness for binding parS DNA” value is ≤ 0.2.

With RSNM, the “one-hybrid fitness for binding parS DNA” value turned out to be 0.357.

Consider EDPT, for which the “one-hybrid fitness for binding parS DNA” value is ≤ 0.2.

Take ATHD: the “one-hybrid fitness for binding parS DNA” value was ≤ 0.2.

QTEY: the “one-hybrid fitness for binding parS DNA” value was ≤ 0.2.

Consider RNTG, for which the “one-hybrid fitness for binding parS DNA” value was determined as 0.908.

For the variant EFTN, the “one-hybrid fitness for binding parS DNA” value was ≤ 0.2.

QCVG: the “one-hybrid fitness for binding parS DNA” value was ≤ 0.2.

As for QREQ, the “one-hybrid fitness for binding parS DNA” value was ≤ 0.2.

Consider RVER, for which the “one-hybrid fitness for binding parS DNA” value was ≤ 0.2.

As to HLYW, the “one-hybrid fitness for binding parS DNA” value was ≤ 0.2.

Regarding WKAR, the “one-hybrid fitness for binding parS DNA” value was ≤ 0.2.

For the variant ANAE, the “one-hybrid fitness for binding parS DNA” value is ≤ 0.2.

In the case of ALKI, the “one-hybrid fitness for binding parS DNA” value is ≤ 0.2.

Regarding QFQR, the “one-hybrid fitness for binding parS DNA” value was ≤ 0.2.

On to LTTM, for which the “one-hybrid fitness for binding parS DNA” value was ≤ 0.2.

With QGRW, the “one-hybrid fitness for binding parS DNA” value was ≤ 0.2.

In the case of CTST, the “one-hybrid fitness for binding parS DNA” value was ≤ 0.2.

On to PTDY, for which the “one-hybrid fitness for binding parS DNA” value was ≤ 0.2.

For the variant CRRW, the “one-hybrid fitness for binding parS DNA” value is ≤ 0.2.
